Laboratory results from PubChem BioAssay AID485294 (National Center for Advancing Translational Sciences (NCATS), 2010).
Among all 370,000 compounds or so, about 150 (0.041%) were called active. The shares of active, inactive and inconclusive entries below differ from those in the screen. Calls follow the shape of the dose curve; as a rule, active = well fitted inhibition curve with a large enough effect; inconclusive = small, poorly fitted or top-dose-only effect; inactive = flat fitted curve, though single readings scatter. No potency is given beside an inconclusive call; the fits are too rough.

target: Beta-lactamase (Escherichia coli (strain K12)) (UniProt P00811); assay: qHTS Inhibitors of AmpC Beta-Lactamase (assay with detergent); conditions: AmpC hydrolysis of nitrocefin, absorbance 480 nm, 0.01% Triton; series mostly up to 114 µM; also: nearly all actives have a fitted effect of over 25% in size
Sequence of UniProt P00811 (P00811 whole entry, looked up): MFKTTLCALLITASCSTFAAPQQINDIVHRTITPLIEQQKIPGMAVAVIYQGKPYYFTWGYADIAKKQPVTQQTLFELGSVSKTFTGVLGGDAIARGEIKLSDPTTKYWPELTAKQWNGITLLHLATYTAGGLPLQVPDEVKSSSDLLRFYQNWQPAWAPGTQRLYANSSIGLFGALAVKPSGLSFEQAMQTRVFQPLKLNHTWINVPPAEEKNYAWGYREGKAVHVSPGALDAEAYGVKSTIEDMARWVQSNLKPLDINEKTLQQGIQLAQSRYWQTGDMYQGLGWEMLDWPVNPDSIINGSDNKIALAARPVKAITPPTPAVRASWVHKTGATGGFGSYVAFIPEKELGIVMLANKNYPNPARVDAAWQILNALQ
Method in brief: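 20 mM phosphate pH 7.0 + 0.01% (detergent screen) or 0.0001% Triton X-100; 5.3 nM AmpC reagent; cpd preinc 15 min RT; nitrocefin (800 uM stock) to start; A480 q20 s × 4 min; Activity was normalised to no-enzyme and no-compound control wells.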
Potency is read from the fitted curve at half-maximal effect; tags tell the direction and shape of the fitted curve.

Structure (SMILES)	Potency
CN(C)S(=O)(=O)c1ccc(C(=O)N2CCOCC2)cc1	inconclusive [inhibitor, full curve, poor fit]
CCOC(=O)C1=C(CNCc2ccc(C)cc2)NC(=O)NC1c1cc(C)ccc1C (configuration not stated)	inconclusive [inhibitor, single point]
CCOc1cc(C(=O)Nc2cc3c(cc2N2CCCC2)n(C)c(=O)n3C)cc(OCC)c1OCC	inactive
O=C(O)c1cc(-c2cccs2)nn1-c1cccc(Cl)c1	inactive
Cc1ccc(N(Cc2ccccc2)C(=O)c2ccc(F)c(S(=O)(=O)N3CCOCC3)c2)cc1	inconclusive [inhibitor, full curve, poor fit]
C=CCNC(=O)COC(=O)c1ccc(Cl)c(S(=O)(=O)N(Cc2ccccc2)c2ccccc2)c1	inconclusive [inhibitor, full curve, poor fit]
O=C(Nn1cnnc1)c1ccccc1F	inconclusive [inhibitor, full curve, poor fit]
Cc1cc(C)cc(NC(=O)c2ccc3c(c2)nnn3C2CCCC2)c1	inactive
Cc1c[n+](CC(=O)c2ccccc2)cs1	inconclusive [inhibitor, full curve, poor fit]
Cc1ccc(NC(=O)C(Nc2ccccc2)c2ccccc2)cc1 (configuration not stated)	inactive
Cc1cc(C)cc(OCC(=O)NC2CCCc3ccccc32)c1 (configuration not stated)	inactive
O=C(Oc1ccc(OC(=O)c2ccco2)c(S(=O)(=O)c2ccc(Br)cc2)c1)c1ccco1	inactive
CCCCOC(=O)/C=C/c1c(C)[nH]c(=O)[nH]c1=O	inconclusive [inhibitor, partial curve]
Nc1cc(N)nc(SCC(=O)N2CCCCC2)n1	inconclusive [inhibitor, partial curve, poor fit]
Cc1ccc(S(=O)(=O)c2nc(Nc3ccccc3)sc2Cl)cc1	inactive
Cc1ccc(N/N=C2\CCS(=O)(=O)c3sccc32)cc1	inconclusive [inhibitor, full curve, poor fit]
COc1ccc(-n2nc(C(=O)NCC(=O)N3CCC4(CC3)OCCO4)c3ccccc3c2=O)cc1	inconclusive [inhibitor, full curve, poor fit]
CCC(C)[C@H]1COCCS(=O)(=O)N1Cc1ccccc1 (some centres not stated)	inconclusive [inhibitor, partial curve, poor fit]
Cc1ccc(N2C(=O)NC(=O)C(CCc3ccncc3)(Cc3cccc(Cl)c3Cl)C2=O)cc1 (configuration not stated)	inconclusive [inhibitor, partial curve, poor fit]
CC1CCc2c(sc(NC(=O)c3cc(-c4cccc(Cl)c4)on3)c2C(N)=O)C1 (configuration not stated)	inactive
COc1cccc(CNC(=O)C(C)n2ncn3cccc3c2=O)c1OC (configuration not stated)	inactive
CCCCSc1nc(N)c(C#N)c(-c2cccs2)c1C#N	inconclusive [inhibitor, full curve]
CCNC(=O)n1nccc1C(C)Oc1ccccc1 (configuration not stated)	inconclusive [inhibitor, full curve, poor fit]

Structure (SMILES)	Potency
Cn1c(=O)[nH]c(=O)c2[nH]c(NCCCN3CCOCC3)nc21	inconclusive [inhibitor, full curve, poor fit]
COCCN(C(=S)Nc1c(C)cccc1C)C(C)c1cccnc1 (configuration not stated)	inconclusive [inhibitor, partial curve]
CCOC(=O)C1=C(COC(=O)Cc2ccccc2F)NC(=O)NC1C (configuration not stated)	inconclusive [inhibitor, full curve, poor fit]
CCOC(=O)c1sc(=S)n(Cc2ccccc2)c1N	inconclusive [inhibitor, full curve]
Cc1nnc2ccc(-c3ccc(NS(=O)(=O)c4ccccc4)cc3)nn12	inconclusive [inhibitor, full curve]
Cn1c(NC(=O)c2cccc(C(F)(F)F)c2)cc(=O)n(C)c1=O	inconclusive [inhibitor, full curve]
Cc1ccc(COc2ccc(-c3cc(C(F)(F)F)n4nc(C)cc4n3)cc2)cc1	inactive
O=C(Nc1ccc2c(c1)OCO2)c1ccc(Br)s1	inconclusive [inhibitor, full curve, poor fit]
CN(c1ccccc1)S(=O)(=O)c1cccc(NC(=O)COc2cccc([N+](=O)[O-])c2)c1	inactive
Nc1c2c(nc3ccn(-c4ccccc4)c(=O)c13)CCCCC2	inconclusive [inhibitor, full curve]
Cc1cc(C)nc(NS(=O)(=O)c2ccc(N3C(=O)c4ccccc4C3=O)cc2)n1	inconclusive [inhibitor, full curve]
Cc1oc(-c2ccccc2Cl)nc1CS(=O)CC(=O)NCc1ccc(Cl)cc1 (configuration not stated)	inactive
Cc1ccc(C)c(CN2CCCN(C(=O)Cn3ncc4c3-c3ccccc3OC4)C2)c1	inconclusive [inhibitor, full curve, poor fit]
CCCCc1ccc(Nc2nc(N3CCOCC3)nc(N3CCOCC3)n2)cc1	inconclusive [inhibitor, full curve]
CC1(C)CC(Nc2ccc(Nc3ccccc3)cc2)CC(C)(C)N1	inactive
Cc1ccc(NS(=O)(=O)c2ccc3c(c2)CC(=O)N3)c(C)c1	inconclusive [inhibitor, partial curve]
CC(=O)Nc1c(Br)cc(N2C(=O)CCC2=O)cc1Br	inconclusive [inhibitor, single point]
COc1ccc(-c2nc(CS(=O)(=O)CC(=O)NCc3ccccc3OC)c(C)o2)cc1	inconclusive [inhibitor, single point]
O=C(O)CSC1CC(=O)N(c2ccc(Cl)c(Cl)c2)C1=O (configuration not stated)	inconclusive [inhibitor, single point]
C/C(=N/NC(=O)c1ccc(C)s1)c1ccncc1	inconclusive [inhibitor, full curve, poor fit]
O=C(NCCCN1CCOCC1)c1ccc2c(=O)n(Cc3cccc(Br)c3)c(=S)[nH]c2c1	inconclusive [inhibitor, full curve, poor fit]
CCc1ccc(-c2cc3c(=O)n(CC(=O)NCCCN4CCN(C)CC4)ncn3n2)cc1	inactive
COc1ccc(CCNC(=O)CSc2cn(CCNC(=O)c3cccc(C(F)(F)F)c3)c3ccccc23)cc1OC	inactive

Structure (SMILES)	Potency
COc1ccc(-n2ncc3c2ncn2nc(COc4ccc(Cl)cc4)nc32)cc1	inactive
O=C(c1cc2c(ccc3ccccc32)oc1=O)N1CCN(CCO)CC1	inconclusive [inhibitor, full curve, poor fit]
COC(=O)c1ccc(N2CCC(c3cc(-c4ccc(OC)cc4)n[nH]3)CC2)c([N+](=O)[O-])c1	inconclusive [inhibitor, full curve, poor fit]
O=C(Cc1cccs1)NCc1ccc(Cl)cc1Cl	inconclusive [inhibitor, single point]
CC1(C)Cc2c(cnn2-c2ccc(F)cc2)C(NC(=O)CCN2CCCCO2)C1 (configuration not stated)	inconclusive [inhibitor, full curve]
Cc1ccc(C)c(N2CCN(C(=O)CCS(=O)(=O)c3cc4c(cc3Cl)NC(=O)CO4)CC2)c1	inactive
c1ccc2c(c1)OC(CCCN1CCCCC1)c1ccccc1S2 (configuration not stated)	inconclusive [inhibitor, single point]
COc1ccc(N2C(=O)CCC(C(=O)c3ccccc3)=C2C)cc1	inconclusive [inhibitor, full curve, poor fit]
COc1ccc(NC(=O)CCS(=O)(=O)c2ccc3c(c2)NC(=O)C(C)S3)cc1OC (configuration not stated)	inconclusive [inhibitor, full curve, poor fit]
CCc1cc(CNC(=O)CCc2nnc(CCCc3ccccc3)o2)on1	inactive
O=C(CSc1nnc(Cc2ccccc2)n1-c1cccc(Cl)c1)NNC(=O)Cc1ccccc1	inconclusive [inhibitor, partial curve]
COc1cccc(NC(=O)C(Sc2nnc(Nc3ccccc3C)s2)c2ccccc2)c1 (configuration not stated)	inactive
Cc1cccc(Oc2nc(CN3CCOCC3)nc3sc4c(c23)CCCC4)c1	inconclusive [inhibitor, full curve, poor fit]
CSc1cccc(NC(=O)CCc2ccccc2)c1	inconclusive [inhibitor, partial curve]
c1ccc(-c2nc(CSc3nnnn3-c3ccccc3)cs2)cc1	inconclusive [inhibitor, full curve]
O=S(=O)(c1cccs1)N1CN(Cc2ccccc2)c2nc3ccccc3nc21	inconclusive [inhibitor, partial curve, poor fit]
CCOC(=O)c1ccc2[nH]c3c(c2c1)CCCCC3=O	inconclusive [inhibitor, partial curve, poor fit]
O=C(COC(=O)CCCNC(=O)c1ccc(Cl)cc1)NC1CC1	inconclusive [inhibitor, single point]
CCN(CC)C(=O)c1sc2c(c1C)c(=O)n(-c1ccc(Cl)c(Cl)c1)c(=O)n2Cc1cc(=O)n2ccccc2n1	inactive
COc1ccc(OC)c(NC(=O)CSc2ncnc3c2cnn3-c2ccccc2Cl)c1	inconclusive [inhibitor, full curve, poor fit]
Cc1oc(/N=C/c2ccc(Cl)cc2)c(C#N)c1C	inconclusive [inhibitor, full curve, poor fit]
